Tested on: opioid dependent subjects
Settings: naloxone 0.1 and 0.2 mg added to 0.75 mg buprenorphine, intravenously

SMILES: C=CCN1CC[C@]23c4c5ccc(O)c4O[C@H]2C(=O)CC[C@@]3(O)[C@H]1C5 [naloxone]
- abuse deterrent effect: provide an abuse deterrent effect
